The source gives no read counts; variants with many changes may rest on few reads.
B1: OR4K15 (parent)
chain: GUUAACGGUCAUAGGCCAUGGAAACUAGGAGCACCAUUUCGCUGCCAGUGAAGAAAUGAACAAAGAAAAUCUGGGCCAGGCAGGCAUCAAAAGAAAUAGUCUUGCGCUCAACCAGAAAGUCUGUAAUCAUUUUAAGGGUA

Variants of: B1
Assay: self-cleavage, relative activity (ratio to wild type); higher = more cleavage; in vitro, sequencing; the parent is a self-cleaving ribozyme

Variant	self-cleavage
A24G A59G U122C	0.38
A24C A90G A118G A140G	0.25
U26A A27G A59G A82G U132C	0.38
A24G A67G A96G G106C A111G	0
A24C A30U U57C A86U A90G A111U	0.04
U26A A30G U102C	1.04
A24G A27G G73A	0.15
A23U A82G A94G	0.39
U26C A51G U72C A111U U120A U131C	0.01
A23U U43C A69G	1
A24U A33G U57C A67G G74U A111G	0.02
A24G A67G U108A	0.05
A24G A55G U87C A110G	0.05
A24G A27G A59G U108G A125U	0.01
A24G A126G A134G	1.5
A23U A51G G123A U139C	1.06
U26A A56G G75A U124C A126G	0.03
A24G A33G U127C	0.34
A23U A78G A117U	0.15
A24G A56G G84A U132C	1.5
A24G U43A A54G	1.85
A24G A52U A66G A117G	1.44
A24G U39A U87C	1.34
U26C A78G C109U A140G	0.1

Variant	self-cleavage
A24G A69U A78G	0.26
A23U A47G A126G U130C	0.61
U26A A30G A66U A89U A135U	0.7
U26C A67U C112U C128A	0.05
A24G A36G U70C	1.05
A24G U70G U103C	1.07
U26A A47G U72G	0.53
U26C A51U U122C	1.11
A24G A52U A91G	1.09
A24G U37A U108C A116G U124C	0.04
U26C A56G A116G	0.97
A23U A59G A63G A64G	1.64
A24G U37C A51U G84A A117G U131C	1.45
U26C A33G A94U	1.72
C25U A92G U131C	1.11
U26C A60G U133C	1.02
A24G U39A U72C	0.13
A24G A52G U103C	0.63
A24G A52G U103A	1.18
A24G G44U A117G U139G	0.72
U26A A30G U133G	1.76
A24G G53U A55G A91G	0.84
A24G A52G A94U U132C	1.41
A24U A114G A126G	0.18

Variant	self-cleavage
A24G C85U U108C	0.05
A24C U43A A63G	2.21
U26A U108A U122A	0
A24G A36C A51U A56G	1.52
A24G U26A A67G A90G U108C U122A	0.01
A24G A51G A62U U87C	1.35
A24G U38C A67G A116G U122C	0.37
A24G U87C U122C	1.49
A24C U49C A116G U130A	0.16
A24G U43C U49C A67G A78U A111G U131C	0.01
A24G A64G A67U A86G A117G U139C	1.45
A24G C46U A52G U70C	0.29
A24U A110G U120C	0.07
A24G C77U A89U	2.41
A24G A33G A56G G83A	1.42
A24G A91G A98U	1.54
A23U A69G A118G	1.72
U26C A68G U132C	1.37
A24U C71U A96G	0.14
C25U A64G A110G A111G A135U	0
A24G A114G A126G U131A	0.41
A24U U26C A51G	1.39
U26C A59G U130C	0.79
A24G A68U A86G U103A A117G	0.62

Variant	self-cleavage
A24G A66G A96G A110C	0.78
A24G A86U A92G U132C	1.16
A24C A66G A116G	0.83
A24G U39A A67G A118G	1.2
A24G A55G U72G A89G	0.15
A24G A59U A117U	0.77
A24G U38C A59U	1.4
A24G C46U U108C	0.03
A24G A51U A59G A92G U120C A129G	0.12
A24G U37C A51G	0.76
A24G A95U A111G	0.01
A24G A78G A95G U132C	0.19
U26C A89U A116U	0.25
A24C A30U A51G	0.42
A24G A30G U43A C46U A125G	0.55
U26C A69G U103C A126G	0.47
A24G A82U A91G	0.15
A24G A69U C77G A135G	0.1
A24G A86G U87C A110U U139C	0.31
A24G A47G A92G U132C	0.32
U26C A47U A62G A63G A82G A90G U122A	0.2
U26A A54G A95G A126G	1.15
A24G C46U A63G A69G U70C A125G	0.05
A23U U70C A94G A129C U133C	0.24

Variant	self-cleavage
A24C A36G A51G U120A U130C A134G	1.41
C25A U38C A56G U87A U127C	0.85
A23U G31C G104A	0.01
A24G A78U A114G	0.32
A24G A30U U124C	0.74
A24G U49C A51U A55G A56G	0.89
A24G A33U A91G U102C	2.22
A24U A68G A96G	1.09
A24U A36G A54G A60G A89G	1.32
U26C A47G U139C	0.2
A24G A56G A82U A96U A125U	0.09
A24C A52G U132C	1.23
A24G A62G A86G A92G U100C	0.67
A23U A86U U87G A118G A129G	1.25
A24G A47C A118C	1.12
A24U A63U A96G	1.74
A24G U57C C71U A86U	0.29
U26C A56G A90G	1.49
A23U U37C A47G A86U	0.95
A24G A60G A116G	1.16
A24U A86U U127C	0.89
U26C A51G A52G A56U A94G A95G U122C U133C	2.24
A24G A62G U124A U132C	0.15
A24U U122C U127A	0.43

Variant	self-cleavage
A24G A52G A62G A126G	1.11
A23U U72C U102C	0.5
A24G A47U U49C A67G U103C A110U	0.24
A24G A27U G48A	1.35
A24U U38C A66G U103C G115A A118G	0.07
A24U A55U U124C	0.26
U26A A27G A110G	0.2
A24G A54G A60G	1.3
A23U A59U U103C U131C	0.28
A24U A67G G104A U130G	0.02
A24G U70C U124C	0.36
A24G A78U A96G C107U	0.01
A24G U38A A64G A90G U108C A111C U127A	0
A24G A86C A94C G115A	0.07
U26A A54G U87A A117G	1.55
A24G U37C G137U	1.58
A23U U37C A69G A118G	1.39
A24U A47G A89G A91G A117G U132C	0
A24G A96G U100C A118U	0.9
A23U A111G U127C	0.03
A24C U38C U49C A86G	0.72
A24G A33G A67U	1.17
A23U A52G A63U A89G G106A A116G U131C	0.03
A24U U70A A117U	0.84

Variant	self-cleavage
A24G A78G G84C U108A U130G	0.01
A24G A98U U100C	2.56
A23U G29C C109A U120C	0.09
C25A A52G U102C A126G A134G	1.7
A24G U38C A56G A96G	1.09
C25U A78U U100C	0.8
A23U A55G A89U A95G A110G U131C A135U	0.17
A24G U100C U139C	1.41
A24U U49A U130C	0.7
U26A G83U A95G	0.25
A24G A36G A96G A118G	1.6
A24G A54G A59G A86G	1.15
A24C A96G U120A	2.35
A24G C46U A126G	0.71
A24G U43C A86G	1.16
C25U A114G U132C	0.38
A23U A36G U38C	0.81
A24G A33G A52C A69G A117G	0.48
U26C A30G A60G U108C U132C	0.03
A24G A110G A125U	0.55
A24U A54G G75C A114U	0.03
A24G A63G A78G U87C C113U	0.06
C25U U57C A67G U72G A98U	0.34
